Some of the results follow. Repeats are few or missing, and single values can be far off.
Legend:
Test in all cases: cell count relative to DMSO control; melanoma cells; higher = more viable cells
Conditions in all cases: library dose: standard library concentration; 72 h
SkMel28 = tested on: SkMel28
SkMel2 = tested on: SkMel2
SkMel30 = tested on: SkMel30
SkMel5 = tested on: SkMel5
UACC257 = tested on: UACC257
UACC62 = tested on: UACC62
WM115 = tested on: WM115
WM1716 = tested on: WM1716
WM3526 = tested on: WM3526
WM1745 = tested on: WM1745
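Note: cells treated in 1,536-well plates, then fixed and DAPI-stained, with nuclei counted from automated high-throughput microscope images.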

Row | SMILES | cell count (SkMel28) | cell count (SkMel2) | cell count (SkMel30) | cell count (SkMel5) | cell count (UACC257) | cell count (UACC62) | cell count (WM115) | cell count (WM1716) | cell count (WM3526) | cell count (WM1745)
1 | CS(=O)(=O)c1ccc(C(=O)Nc2ccc(Cl)c(-c3ccccn3)c2)c(Cl)c1 [vismodegib] + Oc1cc(-c2nc(-c3ccccc3)[nH]c2-c2ccncc2)ccc1Cl [L779450] (first compound 5 µM, partner dose 1 µM) | 49.7% | 31.8% | 104% | 67.5% | 102% | 33.2% | 51.5% | 87.8% | 63.5% | –
2 | C=C(c1ccc(C(=O)O)cc1)c1cc2c(cc1C)C(C)(C)CCC2(C)C [Bexarotene] + CCCS(=O)(=O)Nc1ccc(F)c(C(=O)c2c[nH]c3ncc(Cl)cc23)c1F [PLX4720] (first compound 10 µM, partner dose 0.4 µM) | 45.2% | 78.5% | 86.8% | 76.2% | 80.6% | 50.9% | 82.3% | 70.7% | 43.5% | 88.5%
3 | CN(c1ncccc1CNc1nc(Nc2ccc3c(c2)CC(=O)N3)ncc1C(F)(F)F)S(C)(=O)=O + COc1cc(N2CCC(N3CCN(C)CC3)CC2)ccc1Nc1ncc(Cl)c(Nc2ccccc2S(=O)(=O)C(C)C)n1 [NVP-TAE684] (first compound 0.4 µM, partner dose 0.4 µM) | 80.8% | 72.3% | 72.5% | 45.8% | 79.7% | 76.9% | 57.4% | 76.6% | 80.8% | –
4 | CS(=O)(=O)c1ccc(C(=O)Nc2ccc(Cl)c(-c3ccccn3)c2)c(Cl)c1 [vismodegib] + C=CCNC1=C2C[C@@H](C)C[C@H](OC)[C@H](O)[C@@H](C)/C=C(\C)[C@H](OC(N)=O)[C@@H](OC)/C=C\C=C(/C)C(=O)NC(=CC1=O)C2=O [Tanespimycin] (first compound 5 µM, partner dose 0.01 µM) | 62.9% | 89.4% | 103% | 76.3% | 97.7% | 45.1% | 33.7% | 71.6% | 84.7% | 64.2%
5 | CS(=O)(=O)c1ccc(C(=O)Nc2ccc(Cl)c(-c3ccccn3)c2)c(Cl)c1 [vismodegib] + Cn1cc(/C=C2\C(=O)Nc3cccnc32)c2ccccc21 [GW441756] (first compound 5 µM, partner dose 2 µM) | 96.5% | 98.1% | 108% | 79.9% | 85.9% | 90.9% | 120% | 115% | 83.3% | –
6 | CCCS(=O)(=O)Nc1ccc(F)c(C(=O)c2c[nH]c3ncc(Cl)cc23)c1F + CC(C)CCN1c2nc(Nc3cc(F)c(O)c(F)c3)ncc2N(C)C(=O)C1C [BID1870] (first compound 0.4 µM, partner dose 1 µM) | 54% | 94.5% | 93.3% | 76.9% | 73.6% | 70% | 96.3% | 78% | 53.2% | –
7 | CCCS(=O)(=O)Nc1ccc(F)c(C(=O)c2c[nH]c3ncc(Cl)cc23)c1F + c1cc(-c2cnn3cc(-c4ccc(OCCN5CCCCC5)cc4)cnc23)ccn1 [Dorsomorphin] (first compound 0.4 µM, partner dose 2 µM) | 50% | 72.3% | 117% | 57.9% | 77.4% | 49.8% | 56% | 56.9% | 51.9% | –
8 | C=C(c1ccc(C(=O)O)cc1)c1cc2c(cc1C)C(C)(C)CCC2(C)C [Bexarotene] + Oc1cc(-c2nc(-c3ccccc3)[nH]c2-c2ccncc2)ccc1Cl [L779450] (first compound 10 µM, partner dose 1 µM) | 40.5% | 41.2% | 96.5% | 67.4% | 121% | 57.5% | 61.4% | 84.2% | 57.4% | –
9 | C=C(c1ccc(C(=O)O)cc1)c1cc2c(cc1C)C(C)(C)CCC2(C)C [Bexarotene] + CCN(CC)CCCCNc1ncc2cc(-c3cc(OC)cc(OC)c3)c(NC(=O)NC(C)(C)C)nc2n1 [PD173074] (first compound 10 µM, partner dose 0.5 µM) | 78.8% | 83.9% | 133% | 88.1% | 104% | 110% | 112% | 76.1% | 88.8% | –
10 | NC1(c2ccc(-c3nc4ccn5c(=O)[nH]nc5c4cc3-c3ccccc3)cc2)CCC1 + N#Cc1c(O)c2c(-c3ccc(-c4ccccc4O)cc3)csc2[nH]c1=O [A769662] (first compound 2 µM, partner dose 10 µM) | 48.1% | 64.8% | 94.4% | 66.4% | 93.8% | 71.2% | 79.7% | 77.8% | 76.1% | –
11 | CS(=O)(=O)c1ccc(C(=O)Nc2ccc(Cl)c(-c3ccccn3)c2)c(Cl)c1 [vismodegib] + CCN(CC)CCCCNc1ncc2cc(-c3cc(OC)cc(OC)c3)c(NC(=O)NC(C)(C)C)nc2n1 [PD173074] (first compound 5 µM, partner dose 0.5 µM) | 115% | 117% | 97.9% | 110% | 121% | 106% | 82.5% | 116% | 87.6% | –
12 | NC1(c2ccc(-c3nc4ccn5c(=O)[nH]nc5c4cc3-c3ccccc3)cc2)CCC1 + c1cc(-c2cnn3cc(-c4ccc(OCCN5CCCCC5)cc4)cnc23)ccn1 [Dorsomorphin] (first compound 2 µM, partner dose 2 µM) | 59.8% | 71.5% | 99.8% | 48.3% | 81.7% | 49.8% | 52.3% | 61% | 57.5% | –
13 | CS(=O)(=O)c1ccc(C(=O)Nc2ccc(Cl)c(-c3ccccn3)c2)c(Cl)c1 [vismodegib] + N#Cc1c(O)c2c(-c3ccc(-c4ccccc4O)cc3)csc2[nH]c1=O [A769662] (first compound 5 µM, partner dose 10 µM) | 125% | 97.7% | 116% | 94.5% | 115% | 96.6% | 104% | 95% | 98.6% | –
14 | CCCS(=O)(=O)Nc1ccc(F)c(C(=O)c2c[nH]c3ncc(Cl)cc23)c1F + COC(=O)c1sccc1S(=O)(=O)Nc1ccc(Nc2ccccc2)cc1OC [GSK0660] (first compound 0.4 µM, partner dose 5 µM) | 37.1% | 83.7% | 91.9% | 72.8% | 84.5% | 58.2% | 73% | 59.7% | 54.7% | –
15 | NC1(c2ccc(-c3nc4ccn5c(=O)[nH]nc5c4cc3-c3ccccc3)cc2)CCC1 + O=S(=O)(c1ccccc1)N(CC(F)(F)F)c1ccc(C(O)(C(F)(F)F)C(F)(F)F)cc1 [T0901317] (first compound 2 µM, partner dose 7 µM) | 46.5% | 59.4% | 86.9% | 53.9% | 75.6% | 47.7% | 69.7% | 64.9% | 65.6% | –
16 | CS(=O)(=O)c1ccc(C(=O)Nc2ccc(Cl)c(-c3ccccn3)c2)c(Cl)c1 [vismodegib] + c1cc(-c2cnn3cc(-c4ccc(OCCN5CCCCC5)cc4)cnc23)ccn1 [Dorsomorphin] (first compound 5 µM, partner dose 2 µM) | 62.2% | 83.4% | 97.4% | 54.4% | 52.1% | 60.5% | 72% | 68% | 81.4% | –
17 | C=C(c1ccc(C(=O)O)cc1)c1cc2c(cc1C)C(C)(C)CCC2(C)C [Bexarotene] + O=C1NC(=O)/C(=C/c2ccc(-c3ccc(F)cc3O)o2)S1 [AS252424] (first compound 10 µM, partner dose 5 µM) | 82.7% | 79.5% | 95.9% | 69.6% | 90.9% | 113% | 99.7% | 98.4% | 87.1% | –
18 | C=C(c1ccc(C(=O)O)cc1)c1cc2c(cc1C)C(C)(C)CCC2(C)C [Bexarotene] + COc1ccc2c(c1)CCC1C2CCC2(C)C(NCCCCCCN3C(=O)C=CC3=O)CCC12 [U73122] (first compound 10 µM, partner dose 2 µM) | 62.7% | 70.3% | 113% | 86% | 74.9% | 77% | 105% | 74.5% | 87.1% | –
19 | CCCS(=O)(=O)Nc1ccc(F)c(C(=O)c2c[nH]c3ncc(Cl)cc23)c1F + CCc1ccc(CCOc2ccc(CC3SC(=O)NC3=O)cc2)nc1 [pioglitazone] (first compound 0.4 µM, partner dose 10 µM) | 39.6% | 82.5% | 101% | 89.9% | 98.2% | 49.1% | 82.9% | 66% | 53.1% | –
20 | CCCS(=O)(=O)Nc1ccc(F)c(C(=O)c2c[nH]c3ncc(Cl)cc23)c1F + O=C(O)C(=O)Nc1sc2c(c1C(=O)O)CCNC2 [TCS401] (first compound 0.4 µM, partner dose 8.33333 µM) | 70.3% | 106% | 97.7% | 54.9% | 76.2% | 59.4% | 75.7% | 69.4% | 48.5% | –
21 | CCCS(=O)(=O)Nc1ccc(F)c(C(=O)c2c[nH]c3ncc(Cl)cc23)c1F + COc1ccc2c(c1)CCC1C2CCC2(C)C(NCCCCCCN3C(=O)C=CC3=O)CCC12 [U73122] (first compound 0.4 µM, partner dose 2 µM) | 80.6% | 96.9% | 108% | 85.3% | 111% | 53.9% | 85.6% | 81.9% | 75.5% | –
22 | CN(c1ncccc1CNc1nc(Nc2ccc3c(c2)CC(=O)N3)ncc1C(F)(F)F)S(C)(=O)=O + COc1ccc(COc2ccc(Cc3cnc(N)nc3N)cc2OC)cc1 [GW2580] (first compound 0.4 µM, partner dose 5 µM) | 78.9% | 81.4% | 98.4% | 70.7% | 69.2% | 78% | 78.7% | 95.2% | 92.2% | –
23 | CS(=O)(=O)c1ccc(C(=O)Nc2ccc(Cl)c(-c3ccccn3)c2)c(Cl)c1 [vismodegib] + CCc1ccc(CCOc2ccc(CC3SC(=O)NC3=O)cc2)nc1 [pioglitazone] (first compound 5 µM, partner dose 10 µM) | 67.3% | 89.8% | 110% | 63.4% | 93.9% | 115% | 121% | 91.2% | 97.4% | –

— the supplement of paper PMC4604168 (melanoma cell lines)
